This note sets out measurements from the BET-seq Pho4 binding data (Le et al. 2018).

The other results are listed elsewhere or left out. The energies were worked out here from pooled read counts, against the library average; single values are noisy.

The experiment addresses T1, Pho4 (S. cerevisiae) (UniProt P07270).
T1 sequence: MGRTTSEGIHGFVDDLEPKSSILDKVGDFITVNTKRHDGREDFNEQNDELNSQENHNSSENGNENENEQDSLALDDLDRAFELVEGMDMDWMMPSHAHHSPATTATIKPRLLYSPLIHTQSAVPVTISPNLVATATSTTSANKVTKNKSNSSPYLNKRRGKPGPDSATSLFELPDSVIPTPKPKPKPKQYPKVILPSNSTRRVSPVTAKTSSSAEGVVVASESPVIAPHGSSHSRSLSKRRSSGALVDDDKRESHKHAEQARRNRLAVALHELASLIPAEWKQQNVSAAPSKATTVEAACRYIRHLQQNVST
The experiment is described as follows: relative binding free energy (BET-seq); higher = weaker binding. Particulars: reference: library average.
In the case of GTTTTCACGTGACGGG, the “relative binding free energy” value was 0.31 kcal/mol. Then AGGGACACGTGATCGT, with 0.15 kcal/mol; and TGTGCCACGTGTATAT, with -0.18 kcal/mol.

As to ATGTGCACGTGTTTAG, the “relative binding free energy” value is 0 kcal/mol.

Regarding TGCGGCACGTGTACGG, the “relative binding free energy” value is -0.06 kcal/mol. On to ATAATCACGTGCGTGG, for which the “relative binding free energy” value amounted to 0.13 kcal/mol. For the sequence TGAGTCACGTGTGATA, the “relative binding free energy” value came to 0.15 kcal/mol.

For TTAGTCACGTGCGGTT, the “relative binding free energy” value is 0.08 kcal/mol.

For the sequence AGCGTCACGTGGGAGA, the “relative binding free energy” value is -0.01 kcal/mol. For GGTGGCACGTGGCGTC, the “relative binding free energy” value was -0.05 kcal/mol. Take GTATCCACGTGGGAGT: the “relative binding free energy” value is -0.07 kcal/mol. For the sequence TGGGCCACGTGAGAGA, the “relative binding free energy” value is 0.23 kcal/mol. Then GCTCGCACGTGGCTGG, with 0.07 kcal/mol. Turning to ATGTTCACGTGGAGGG, the “relative binding free energy” value was found to be 0.27 kcal/mol. As to GAGAGCACGTGGGCTT, the “relative binding free energy” value is -0.08 kcal/mol.

As to TGTTGCACGTGGAAGC, the “relative binding free energy” value worked out at 0.02 kcal/mol.

Consider GAGTTCACGTGGAGGA, for which the “relative binding free energy” value is 0.27 kcal/mol. The value for GGGCACACGTGGGCTG was -0.09 kcal/mol; that for TGTGACACGTGTATCG was 0.21 kcal/mol.

In the case of TAGAACACGTGGCGGT, the “relative binding free energy” value was -0.02 kcal/mol. As to CGAATCACGTGTGAGG, the “relative binding free energy” value stood at 0.23 kcal/mol. For the sequence TGCCTCACGTGTGTTA, the “relative binding free energy” value amounted to 0.19 kcal/mol.

Regarding TGTAGCACGTGAGTGG, the “relative binding free energy” value was 0.09 kcal/mol. Turning to ATTTACACGTGTGGGG, the “relative binding free energy” value was 0.03 kcal/mol. For GAGAACACGTGGGGGC, the “relative binding free energy” value is 0.02 kcal/mol. The value for TAATGCACGTGCGGGA was -0.11 kcal/mol; that for TGGGACACGTGGAAGT was 0.12 kcal/mol. Then GGAGTCACGTGTGGAG, with 0.23 kcal/mol. As to GAAGCCACGTGGGGTT, the “relative binding free energy” value was -0.14 kcal/mol. Regarding TAGGTCACGTGCTTAA, the “relative binding free energy” value worked out at 0.09 kcal/mol. Turning to CGGTGCACGTGATGGT, the “relative binding free energy” value is 0.08 kcal/mol. As to CGGTGCACGTGAATAT, the “relative binding free energy” value was 0.49 kcal/mol.

Consider TATGACACGTGTAGAG, for which the “relative binding free energy” value was found to be 0.09 kcal/mol. As for TAATACACGTGTGTAT, the “relative binding free energy” value was found to be 0 kcal/mol. Consider CTGGTCACGTGTTGCG, for which the “relative binding free energy” value was 0 kcal/mol.

Regarding TAGGGCACGTGTATTC, the “relative binding free energy” value was -0.17 kcal/mol.

With GTGGGCACGTGGATGT, the “relative binding free energy” value is -0.16 kcal/mol. Turning to AAAGTCACGTGTTATG, the “relative binding free energy” value was 0.07 kcal/mol.

In the case of GTCTGCACGTGGTCTT, the “relative binding free energy” value was 0.07 kcal/mol. With AAACTCACGTGGTGTG, the “relative binding free energy” value was determined as 0.19 kcal/mol. GTAGGCACGTGTTTTA: the “relative binding free energy” value turned out to be 0.05 kcal/mol.

Regarding TGTGCCACGTGGAGGA, the “relative binding free energy” value was -0.11 kcal/mol. In the case of TGTATCACGTGCGGCG, the “relative binding free energy” value came to 0.21 kcal/mol. Regarding TTCGTCACGTGTATTA, the “relative binding free energy” value stood at 0.06 kcal/mol. On to GTCATCACGTGGGTGA, for which the “relative binding free energy” value turned out to be 0.04 kcal/mol.

For the sequence AATCACACGTGGTGGG, the “relative binding free energy” value turned out to be 0.02 kcal/mol. CGGGGCACGTGGGATA: the “relative binding free energy” value is -0.08 kcal/mol. GAGTACACGTGTGGGA: the “relative binding free energy” value was 0.19 kcal/mol. Take ATGGTCACGTGACTTG: the “relative binding free energy” value came to 0.38 kcal/mol. Take GTTGGCACGTGGCTTA: the “relative binding free energy” value was -0.23 kcal/mol. Then GGGTGCACGTGCGGGC, with -0.12 kcal/mol.

GAGATCACGTGTAATG: the “relative binding free energy” value was determined as 0.26 kcal/mol. As to GTTAGCACGTGTCTGG, the “relative binding free energy” value stood at 0.02 kcal/mol. For the sequence GTAGTCACGTGGCTAG, the “relative binding free energy” value is -0.02 kcal/mol.

In the case of CGTGTCACGTGACGGT, the “relative binding free energy” value stood at 0.12 kcal/mol. For AGGGACACGTGTGTAG, the “relative binding free energy” value is -0.09 kcal/mol.

For the sequence TATACCACGTGTTAGG, the “relative binding free energy” value is 0.03 kcal/mol. Then ATTTGCACGTGGTCTT, with -0.11 kcal/mol; and ATTAACACGTGCATTG, with 0.03 kcal/mol. Consider GTGGTCACGTGGATGT, for which the “relative binding free energy” value turned out to be 0.24 kcal/mol. As to ATCGTCACGTGGGATG, the “relative binding free energy” value was found to be 0.01 kcal/mol. The value for AATGTCACGTGATTGG was 0.18 kcal/mol. Regarding GTGGGCACGTGAGGCA, the “relative binding free energy” value was found to be 0.21 kcal/mol. Take CTAGGCACGTGAGTAT: the “relative binding free energy” value worked out at 0.12 kcal/mol.

Take AAGAGCACGTGTGGGG: the “relative binding free energy” value was -0.14 kcal/mol. The value for TCTGGCACGTGGGGCC was -0.21 kcal/mol; that for GGGTGCACGTGGCGGA was -0.08 kcal/mol. TTCATCACGTGTATTT: the “relative binding free energy” value amounted to 0.11 kcal/mol. Turning to TAGTGCACGTGTGGAA, the “relative binding free energy” value turned out to be 0.04 kcal/mol.

Take ATTGCCACGTGTAGTT: the “relative binding free energy” value was 0 kcal/mol. Then TTAGTCACGTGGATCA, with 0.11 kcal/mol; and TATTTCACGTGCTGGC, with 0.17 kcal/mol; and GTGATCACGTGGTACT, with 0.04 kcal/mol.

As for AGAGTCACGTGATAGG, the “relative binding free energy” value was found to be 0.21 kcal/mol. For TTGGGCACGTGCTGCA, the “relative binding free energy” value is -0.22 kcal/mol. Regarding TTAATCACGTGGAGGT, the “relative binding free energy” value came to 0.17 kcal/mol. Turning to ATGGTCACGTGTATGT, the “relative binding free energy” value worked out at 0.09 kcal/mol.

Take GTTATCACGTGTTCTG: the “relative binding free energy” value was 0.11 kcal/mol.

Turning to AGTGTCACGTGGATAT, the “relative binding free energy” value was determined as 0.08 kcal/mol.

For the sequence GGCGGCACGTGTCTTG, the “relative binding free energy” value is -0.11 kcal/mol.

Take GGGGTCACGTGACGAG: the “relative binding free energy” value came to 0.24 kcal/mol. As to GGGAGCACGTGTTCGG, the “relative binding free energy” value was -0.08 kcal/mol. In the case of AGCTACACGTGGGTAT, the “relative binding free energy” value is -0.03 kcal/mol. The value for TGTTTCACGTGAAGAT was 0.37 kcal/mol; that for GGGTTCACGTGCGGCG was 0.25 kcal/mol; that for ACAGGCACGTGGTATT was -0.26 kcal/mol.

With CGGGTCACGTGAAATG, the “relative binding free energy” value is 0.22 kcal/mol. In the case of GGATCCACGTGTAGGG, the “relative binding free energy” value worked out at 0.13 kcal/mol.

For GCGGGCACGTGGGTAA, the “relative binding free energy” value is -0.23 kcal/mol.

TGTCTCACGTGCAAGT: the “relative binding free energy” value was found to be 0.15 kcal/mol.

GGTGACACGTGGAGTA: the “relative binding free energy” value worked out at 0.03 kcal/mol. GTGCGCACGTGTAATG: the “relative binding free energy” value was -0.04 kcal/mol. Turning to TAGCCCACGTGGTGGG, the “relative binding free energy” value is -0.1 kcal/mol. Regarding GTTTTCACGTGCGTTT, the “relative binding free energy” value is 0.3 kcal/mol. For the sequence CAGTTCACGTGATTTT, the “relative binding free energy” value is 0.38 kcal/mol. As for TGTTACACGTGTGCGC, the “relative binding free energy” value stood at 0.15 kcal/mol. Then ATCGTCACGTGAAGGA, with 0.35 kcal/mol; and ATTGTCACGTGACGTG, with 0.25 kcal/mol.

For GCGGGCACGTGCGGTA, the “relative binding free energy” value was -0.15 kcal/mol.

With CTATCCACGTGTAGGT, the “relative binding free energy” value was 0.2 kcal/mol. As for GGGGGCACGTGATTTT, the “relative binding free energy” value amounted to 0.11 kcal/mol. Then TTTGGCACGTGGTCCT, with -0.18 kcal/mol. The value for TCGGGCACGTGTGTTA was 0.04 kcal/mol; that for ATTTTCACGTGGTGAC was 0.34 kcal/mol. On to CTGAACACGTGTGGGA, for which the “relative binding free energy” value is 0.14 kcal/mol. For the sequence TTTGTCACGTGGTAGT, the “relative binding free energy” value is -0.04 kcal/mol. The value for GCATACACGTGGGGTT was -0.04 kcal/mol; that for GTTCGCACGTGGGTAA was -0.26 kcal/mol; that for TGTACCACGTGGCTGG was -0.16 kcal/mol. TGTCGCACGTGTGCGT: the “relative binding free energy” value was -0.08 kcal/mol. On to ATAGACACGTGGGGGA, for which the “relative binding free energy” value is -0.07 kcal/mol. For GAGTACACGTGGGTTC, the “relative binding free energy” value was -0.03 kcal/mol.

Consider GGAGACACGTGCGGGA, for which the “relative binding free energy” value is -0.03 kcal/mol.

On to AAATTCACGTGTAGTG, for which the “relative binding free energy” value came to 0.21 kcal/mol.

Turning to CGTTTCACGTGTAAGT, the “relative binding free energy” value is 0.28 kcal/mol.
